From paper PMC2839002 (Chromosoma, 2009) come the findings set out here.

For assay [1], the target named is His-T7-SMN (UniProt Q16637). The assay is described as follows: pull-down.
In assay [2] the target is His-T7-SmB′ (UniProt P14678). The assay is described as follows: pull-down.

B1: GST-C214 S489D (domain or fragment)
chain: not shown
For B1, the binding result in assay [1] and in assay [2] was “binds” throughout.
